Our source for the binding signal (log2 fold change) values is article PMC5892938.

The list shows a part of the results. The source does not settle which construct or isoform was used.

The target in this assay is GST-SBP-ILF3 (Homo sapiens) (UniProt Q12906). Kind of assay: targeted RNA Bind-n-Seq. As to conditions: RBNS binding buffer: 25 mM Tris pH 7.5, 150 mM KCl, 3 mM MgCl2, 0.1% Tween, 0.5 mg/mL BSA, 1 mM DTT; 27 nM protein, 750 pM RNA pool; temperature not stated; high values mean tight binding; sequences stand for … in GGGUAAAAGCGAGGUGAA…CGGGACAAGUAUUAUGGG
On to “UUUUUUUUUUGAGAGGGUCGCCCUCUCCAG [tttttgagapaired]”, for which the binding signal (log2 fold change) was 0.697.

In the case of “UUCUCUUCUCCUCCUUGGGAGGGGAAGGGA [ctspaired]”, the binding signal (log2 fold change) was -0.472.

As for “GGUGUGUGUGUUGGACCCUAACACAUACGC [gtspaired]”, the binding signal (log2 fold change) was -0.0898.

For the sequence “GUUGUGUGUGUUGGCUUCUAACACACGCAA [gtspaired]”, the binding signal (log2 fold change) was -0.633.

On to “UUUUUUUUUUGAGACCGGAACGGUCUCCGG [tttttgagapaired]”, for which the binding signal (log2 fold change) amounted to 0.232.

On to “GUGUGUGGUGUUGGCCUCUAACACCACGCA [gtspaired]”, for which the binding signal (log2 fold change) was -0.626.

Consider “GUGGUGUGUGUUGGCUUCUAACACAUACUA [gtspaired]”, for which the binding signal (log2 fold change) is -0.837.

On to “GGUUGUGGUGUUGGUAUCUAACACCGCGAC [gtspaired]”, for which the binding signal (log2 fold change) was -0.583.

As to “GGUGUGUGUGUUGGACCCUAACACACAUAC [gtspaired]”, the binding signal (log2 fold change) was -0.583.

Turning to “UUUUUUUUUUGAGACCGAAACGGUUUCCUA [tttttgagapaired]”, the binding signal (log2 fold change) was found to be 0.221.

Consider “GGUUGUGGUGUUGGUGCCUAACACCGCGAC [gtspaired]”, for which the binding signal (log2 fold change) is -0.287.

Consider “UUUUUUUUUUGAGAGUGAUACACUCUCCGG [tttttgagapaired]”, for which the binding signal (log2 fold change) is -0.0683.

With “UUUUUUUUUUGAGAUCGUAUCGAUCUUCUA [tttttgagapaired]”, the binding signal (log2 fold change) is -0.322.

On to “UUUUUUUUUUGAGACUGGAACAGUCUUCUA [tttttgagapaired]”, for which the binding signal (log2 fold change) was -0.0523.

For “UUUUUUUUUUGAGACGGCGUCCGUCUCCAG [tttttgagapaired]”, the binding signal (log2 fold change) is 0.915.

Turning to “UUUUUUUUUUGAGACGGGGACUGUCUCCUA [tttttgagapaired]”, the binding signal (log2 fold change) worked out at 0.825.

With “UUUUUUUUUUGAGACUGUAACAGUCUCCUG [tttttgagapaired]”, the binding signal (log2 fold change) worked out at 0.692.

Regarding “UUUUUUUUUUGAGACUGUAGCAGUCUUCUG [tttttgagapaired]”, the binding signal (log2 fold change) came to 0.742.

Regarding “GUGUGUGGUGUUGGAAUCUAACACCGCGCA [gtspaired]”, the binding signal (log2 fold change) was -0.485.

For “GUGUGGUGUGUUGGCCUCUAACACACCGCG [gtspaired]”, the binding signal (log2 fold change) was -0.843.

On to “GUGGUGUGUGUUGGCUCCUAACACACGCCG [gtspaired]”, for which the binding signal (log2 fold change) is -0.454.

Regarding “GUGGUGUGUGUUGGCGCCUAACACACGCCA [gtspaired]”, the binding signal (log2 fold change) is -0.143.

On to “UUUUUUUUUUGAGAUGGGGACCAUCUUCUA [tttttgagapaired]”, for which the binding signal (log2 fold change) was 0.15.

Take “UUUUUUUUUUGAGACUGAAGCAGUCUCCUG [tttttgagapaired]”: the binding signal (log2 fold change) turned out to be 0.447.

On to “GUGUUGUGUGUUGGCACCUAACACACAACG [gtspaired]”, for which the binding signal (log2 fold change) is -0.252.

Take “UUUUUUUUUUGAGACGGGUGCCGUCUCCUA [tttttgagapaired]”: the binding signal (log2 fold change) came out at 0.412.

As to “GUGUGUUGUGUUGGUGCCUAACACAACGCA [gtspaired]”, the binding signal (log2 fold change) was -0.894.

On to “UUUUUUUUUUGAGAUGGGUACUAUCUCCAG [tttttgagapaired]”, for which the binding signal (log2 fold change) came to 0.623.

Turning to “GGUGGUGGUGUUGGCGCCUAACACCGCCGC [gtspaired]”, the binding signal (log2 fold change) is -0.259.

Regarding “UUUUUUUUUUGAGAACGAACCGUUCUCCUA [tttttgagapaired]”, the binding signal (log2 fold change) came out at 0.0225.

For “GUGUGGUGUGUUGGUUCCUAACACACUAUA [gtspaired]”, the binding signal (log2 fold change) was -0.473.

As for “UUUUUUUUUUGAGAGCGGGACGUUCUCCGG [tttttgagapaired]”, the binding signal (log2 fold change) turned out to be 0.39.

Regarding “GUUGUGUGUGUUGGAGCCUAACACACGCAA [gtspaired]”, the binding signal (log2 fold change) is -0.406.

“UUUUUUUUUUGAGAUGGGUACCAUUUCCGG [tttttgagapaired]”: the binding signal (log2 fold change) is 0.56.

Consider “UUUUUUUUUUGAGAGGGGCACCCUCUCCGG [tttttgagapaired]”, for which the binding signal (log2 fold change) was 0.661.

Turning to “UUUUUUUUUUGAGACGGAAUCUGUCUUCUA [tttttgagapaired]”, the binding signal (log2 fold change) is 0.148.

On to “GGUGGUGGUGUUGGAUCCUAACACCGCUAC [gtspaired]”, for which the binding signal (log2 fold change) was -0.964.

As to “UUUUUUUUUUGAGACGGCAUCCGUCUCCUG [tttttgagapaired]”, the binding signal (log2 fold change) turned out to be 0.611.

As to “UUUUUUUUUUGAGAGGGGAUCCUUCUCCGG [tttttgagapaired]”, the binding signal (log2 fold change) amounted to 0.00989.

In the case of “GGUUGUGGUGUUGGACCCUAACACCGCAGC [gtspaired]”, the binding signal (log2 fold change) is -0.785.

Take “UUUUUUUUUUGAGACCGAUCCGGUCUCCUA [tttttgagapaired]”: the binding signal (log2 fold change) was found to be 0.259.

In the case of “UUUUUUUUUUGAGACUGUGACAGUUUCCGG [tttttgagapaired]”, the binding signal (log2 fold change) is 0.685.

In the case of “GUGUGUGGUGUUGGAACCUAACACCGCACG [gtspaired]”, the binding signal (log2 fold change) was -1.01.

For the sequence “UUUUUUUUUUGAGAUGGUCUCCAUCUCCGG [tttttgagapaired]”, the binding signal (log2 fold change) was 0.227.

As for “UUUUUUUUUUGAGACGGGUACCGUCUCCUG [tttttgagapaired]”, the binding signal (log2 fold change) came out at 0.242.

On to “UUUUUUUUUUGAGAGCGACACGUUCUCCUA [tttttgagapaired]”, for which the binding signal (log2 fold change) was 0.206.

As to “UUCCUUCUUCCUCCGUGGGAGGGAGAGGGA [ctspaired]”, the binding signal (log2 fold change) is -0.375.

With “UUUUUUUUUUGAGAGUGAGACACUCUUCUA [tttttgagapaired]”, the binding signal (log2 fold change) came out at 0.0182.

As for “UUUUUUUUUUGAGAGCGACGCGCUCUUCUA [tttttgagapaired]”, the binding signal (log2 fold change) turned out to be 0.188.

With “UUUUUUUUUUGAGACCGCAACGGUCUUCUG [tttttgagapaired]”, the binding signal (log2 fold change) was found to be 0.719.

With “GUUGGUGGUGUUGGUCCCUAACACCACCGA [gtspaired]”, the binding signal (log2 fold change) was -0.587.

In the case of “UUUUUUUUUUGAGAACGAGUCGUUCUCCGG [tttttgagapaired]”, the binding signal (log2 fold change) was 0.199.

As to “GUGUGUGGUGUUGGCACCUAACACCGCGCA [gtspaired]”, the binding signal (log2 fold change) was -0.626.

“UUUUUUUUUUGAGACUGCUACAGUUUCCUG [tttttgagapaired]”: the binding signal (log2 fold change) was found to be 0.823.

As to “UUUUUUUUUUGAGACGGAAACCGUUUCCAG [tttttgagapaired]”, the binding signal (log2 fold change) amounted to 0.559.

“GGUGUUGGUGUUGGAGUCUAACACCGAUAC [gtspaired]”: the binding signal (log2 fold change) is -0.59.

For the sequence “GUGUGGUGUGUUGGCCCCUAACACAUCGCA [gtspaired]”, the binding signal (log2 fold change) was 0.0119.

As for “UUUUUUUUUUGAGACUGCAACAGUUUCCGG [tttttgagapaired]”, the binding signal (log2 fold change) was found to be 0.666.

As for “GUUGGUGGUGUUGGUGCCUAACACCAUCAA [gtspaired]”, the binding signal (log2 fold change) is -0.0456.

Turning to “UUUUUUUUUUGAGACUGUUUCAGUCUCCUA [tttttgagapaired]”, the binding signal (log2 fold change) is -0.237.

Turning to “UUUUUUUUUUGAGAUGGAGGCCAUCUUCUG [tttttgagapaired]”, the binding signal (log2 fold change) was determined as 0.328.

In the case of “UUUUUUUUUUGAGAUGGGGUCCGUCUCCUG [tttttgagapaired]”, the binding signal (log2 fold change) came to 0.882.

With “UUUUUUUUUUGAGAAGGGGUCCUUCUCCUG [tttttgagapaired]”, the binding signal (log2 fold change) was 0.663.

As for “UUUUUUUUUUGAGAGGGAUACCCUCUUCUA [tttttgagapaired]”, the binding signal (log2 fold change) is -0.00194.

In the case of “UUUUUUUUUUGAGAGUGAGACACUCUCCUA [tttttgagapaired]”, the binding signal (log2 fold change) was -0.00729.

With “UUUUUUUUUUGAGAGCGAUACGCUCUCCUG [tttttgagapaired]”, the binding signal (log2 fold change) turned out to be 0.258.
